The text below walks through data of PubChem BioAssay AID1346428 (National Center for Advancing Translational Sciences (NCATS), 2018).

About 1,200 (2.5%) of roughly 48,000 compounds were called active. About 2% were inconclusive and are not listed.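 The calls were made as follows: active = activation of at least 60% and not above a set upper limit (about 1 call in 100 departs from these limits); inconclusive = activation of 40% to 60%, or above that upper limit; inactive = activation under 40%.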 This is one part of the list.

Chain of UniProt O75388 (O75388 whole entry, looked up): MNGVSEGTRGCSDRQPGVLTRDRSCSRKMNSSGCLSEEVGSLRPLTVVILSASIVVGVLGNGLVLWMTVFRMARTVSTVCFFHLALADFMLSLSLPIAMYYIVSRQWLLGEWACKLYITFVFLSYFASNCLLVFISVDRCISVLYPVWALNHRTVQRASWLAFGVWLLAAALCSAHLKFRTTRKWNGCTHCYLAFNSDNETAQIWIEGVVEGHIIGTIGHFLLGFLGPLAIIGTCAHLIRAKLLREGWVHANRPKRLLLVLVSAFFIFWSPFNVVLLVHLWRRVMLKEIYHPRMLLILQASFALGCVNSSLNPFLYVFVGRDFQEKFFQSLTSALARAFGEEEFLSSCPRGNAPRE

The target of the experiment is Probable G-protein coupled receptor 32 (Homo sapiens) (UniProt O75388). Description: qHTS for Agonists of Human Resolvin D1 Receptor DRV1. As to conditions: CHO-K1 GPR32 beta-arrestin PathHunter luminescence, 90 min; at 76.9 µM; stronger effect = higher value; zero percent set by DMSO-only wells. The procedure, abridged:
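Beta-arrestin recruitment read-out: luminescence from complemented beta-Gal in CHO-K1 GPR32 PathHunter cells, measured 1 h after detection reagent at ambient temperature following 90 min compound exposure at 37 °C; DMSO served as basal (EC0) control.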
In general terms: Quantitative high-throughput screening tests each substance at several concentrations.
For `COc1ccc(C2C=C(c3ccc(Br)cc3)Nc3nnnn32)c(OC)c1` (stereo not drawn), the activation is inactive: -33.1%.

Take `COc1ccccc1CNc1nc2c(S(=O)(=O)c3ccccc3)nnn2c2ccc(Cl)cc12`: the activation was inactive: -6.99%.

For `CCc1nn2c(=O)c(S(=O)(=O)Nc3ccc(Br)cc3F)c(C)nc2s1`, the activation is inactive: 0.751%.

Consider `O=C(NC1CCCCC1)c1ccc(CSc2nc3ccncc3n2Cc2ccc(F)cc2)cc1`, for which the activation is inactive: 13.9%.

With `O=C1Cc2cc(Cl)ccc2N1`, the activation was inactive: -44.3%.

In the case of `Cc1ccccc1NC(=O)Cn1nnc(C(=O)NCCc2ccccc2)c1N`, the activation is inactive: -27.3%.

Consider `NC(=O)c1nn2c(C(F)(F)F)cc(-c3ccc(Br)cc3)nc2c1Cl`, for which the activation is inactive: -10.2%.

Regarding `CC(=O)c1cccc(NC(=O)Cn2nc(C(F)(F)F)c3c2CCC3)c1`, the activation is inactive: -6.73%.

Turning to `Cc1ccc2nc(Cl)c3cc(C(=O)NCCCN(C)Cc4ccccc4)sc3c2c1`, the activation is inactive: -23.5%.

`CSc1nc(=O)c2c(n1C)NC(=O)CC2c1cc(F)cc(F)c1` (stereo not drawn): the activation is inactive: -10.3%.

Take `COc1ccc(OC)c(NC(=O)CN2CCCN(Cc3ccccc3Cl)S2(=O)=O)c1`: the activation was inactive: -15.5%.

Turning to `O=C(CNC(=O)c1ccc(F)cc1)OCc1cc(=O)n2nc(C3CCCCC3)sc2n1`, the activation is inactive: -10.5%.

Take `CCOc1ccccc1C(=O)NCc1nc2cccnc2n1Cc1ccc(C)cc1`: the activation was inactive: -18.3%.

As to `CCOc1cc(CNC(=O)c2ccc3c(c2)N(C)C(=O)C2CCCCN32)ccc1OC` (stereo not drawn), the activation is inactive: -0.889%.

Turning to `COc1ccc(CNC(=O)CCCn2nc(C)c3c(C)n(-c4ccc(C)cc4)nc3c2=O)cc1OC`, the activation was inactive: -18.3%.

In the case of `Cc1ccc(-n2ncc3c(NC4CCCCC4)ncnc32)cc1Cl`, the activation was inactive: -3.25%.

As to `Cc1ccc(N2CCN(C(=O)c3cnn(-c4ccc(C)c(C)c4)c3C3CCNCC3)CC2)c(C)c1`, the activation is inactive: -8.04%.

As to `CCN(c1ccccc1)c1nnc(NC(=O)Nc2ccc(Br)c(C)c2)s1`, the activation is inactive: 5.02%.

As for `O=C(c1ccc2c(Cl)c3c(nc2c1)CCCC3)N1CCN(c2cccc(C(F)(F)F)c2)CC1`, the activation is inactive: 12.1%.

Consider `O=C(CSc1nccn1Cc1ccco1)Nc1cc(C(F)(F)F)ccc1Cl`, for which the activation was inactive: -15.8%.

As for `CCOc1ccc(CNC(=O)CCS(=O)(=O)c2cc3c4c(c2)CCN4C(=O)CC3)cc1OC`, the activation is inactive: 2.49%.

Turning to `O=C(CN1C(=O)COc2ccc(S(=O)(=O)N3CCCCCC3)cc21)N1CCN(c2ccccc2F)CC1`, the activation is inactive: -18.8%.

As for `COc1ccc2nc(NC(=O)c3cc(=O)c4cc(C)cc(C)c4o3)sc2c1`, the activation is inactive: 41.4%.

Consider `CCc1ccc(S(=O)(=O)c2cn(CC)c3cc(N4CCCCC4)c(F)cc3c2=O)cc1`, for which the activation was inactive: 9.97%.

`Cc1ccc(CNC(=O)CN2CCN(Cc3ccc(F)cc3Cl)C2=O)cc1`: the activation was inactive: 27.6%.

Take `COc1cc(OC)c(NC(=O)C2CCN(S(=O)(=O)c3ccc4c(c3)oc(=O)n4C)CC2)cc1Cl`: the activation was inactive: -5.46%.

Turning to `COc1ccc(C(=O)N2CCN(CC(=O)N3CCOCC3)CC2)cc1`, the activation is inactive: -19.9%.

Turning to `CCc1ccc(Nc2sc(C(=O)c3ccc(F)cc3)c(N)c2S(=O)(=O)c2ccccc2)cc1`, the activation is inactive: -29.4%.

Consider `Nc1c(C(=O)NCc2ccc(Cl)cc2)sc2nc(-c3ccc(F)cc3)ccc12`, for which the activation was inactive: 0.57%.

As to `COc1ccc(OC)c(NC(=O)CCNS(=O)(=O)c2ccc3c(c2)oc(=O)n3C)c1`, the activation was inactive: -7.84%.

For the compound `COc1ccc(CCNC(=O)Cc2c(C)c3cc4c(C)coc4cc3oc2=O)cc1OC`, the activation was inactive: -9.3%.

In the case of `Cc1ccc(-n2c(=O)c3c(C)c(C)sc3n(Cc3ccc(F)cc3Cl)c2=O)cc1C`, the activation was inactive: -5.33%.

Regarding `CCOc1ccc(C2C(=O)N(C3CCCCC3)CC(=O)N2CCc2ccccc2)cc1OC` (stereo not drawn), the activation is inactive: -21.1%.

`Oc1ccc(-c2nc3ccc(Cl)cn3c2Nc2ccc3c(c2)OCO3)cc1`: the activation is inactive: -9.02%.

As for `CC(=O)c1ccc(NC(=O)Cn2ncc3c4ccccc4n(Cc4ccccc4)c3c2=O)cc1`, the activation was inactive: -12.3%.

In the case of `COc1cc(C(=O)NCc2nc3cccnc3n2Cc2ccc(C)cc2)cc(OC)c1OC`, the activation is inactive: -13.6%.

Turning to `Cc1cc(C)c(NS(=O)(=O)c2ccc(-c3coc(C)n3)cc2)c(C)c1`, the activation is inactive: 11.5%.

With `O=C1CC(=O)Nc2cc(S(=O)(=O)N3CCOc4ccc(Cl)cc43)ccc2N1`, the activation is inactive: -10.7%.

`O=C(NCc1ccc(Cl)cc1)C1CCN(S(=O)(=O)c2ccccc2)CC1`: the activation is inactive: -7.54%.

Consider `COc1ccc(N(C(=O)c2ccccc2)S(=O)(=O)c2ccc3c(c2)n(C)c(=O)n3C)cc1`, for which the activation is inactive: -12.1%.

Regarding `COc1ccccc1CNC(=O)CCn1cnc2ccccc2c1=O`, the activation was inactive: 0.868%.

For the compound `O=C(NC1CC(=O)N(c2ccc(F)cc2)C1)c1ccc2c(c1)OCO2` (stereo not drawn), the activation was inactive: -5.18%.

As to `O=C(c1ccc2c(c1)N(Cc1cccc(Cl)c1)C(=O)c1ccccc1S2=O)N1CCN(c2cccc(C(F)(F)F)c2)CC1` (stereo not drawn), the activation is inactive: -25.1%.

Take `Cc1cccc(Cn2nnc3c(=O)[nH]c(C4CCCN(C(=O)c5ccccc5Cl)C4)nc32)c1` (stereo not drawn): the activation was inactive: 11.4%.

`O=C(Cn1c(=O)n2nc(-c3cccc(F)c3)nc2c2ccccc21)N1CCN(c2ccc(F)cc2)CC1`: the activation is inactive: 6.94%.

Consider `Cn1c(=O)c2c(ncn2Cc2ccc(Cl)cc2)n(C)c1=O`, for which the activation was inactive: 22.5%.

For `CCN1CCN(C(c2ccccc2Cl)c2c(O)cc(C)n(Cc3ccco3)c2=O)CC1` (stereo not drawn), the activation was inactive: -12%.

On to `N#Cc1nc(/C=C/c2ccc(F)cc2)oc1NCc1ccc(F)cc1`, for which the activation was inactive: 13.7%.

For `COc1ccc(N2CCN(C(=O)CNS(=O)(=O)c3ccc(Br)s3)CC2)cc1`, the activation is inactive: 13.1%.

`CC(NC(=O)c1ccc(F)cc1)c1nc2ccccc2[nH]1` (stereo not drawn): the activation is inactive: 2.57%.

For `CCc1ccc(NC(=O)Cn2c(=O)n(-c3cc(OC)c(OC)c(OC)c3)c(=O)c3ccccc32)cc1`, the activation is inactive: -9.12%.

With `Cc1cc(C(=O)C(=O)Nc2nncs2)c(C)n1-c1ccc(Cl)cc1`, the activation is inactive: 5.82%.

`COc1ccccc1NC(=O)c1cn(-c2ccccc2)nc1-c1ccccc1`: the activation was inactive: -8.27%.
